Publication PMC12136788
This is one part of the list.

B1: chr4:57031156:57031257:-|3pUTR|ENSG00000163453|msi1|total|mutant (ssRNA)
RNA: GGGAGUUCUACAGUCCGACGAUCAUAACUACAUUACCUGUUCUUGCCUAAUAAGUUUCUUUUAAUCCAAUCCACUAACACUUCCGUUAUAUUCACUGGUUUUACACAGAGAAAUACAAAAUAAAGAUCACACAUCAAGACUAUCAACAGAGGAUUGAGCAUCA
B2: ENSG00000198589:be:win_1001|CDS|ENSG00000198589|bound_else_gene|NA|bound_elsewhere_windowed (ssRNA)
RNA: GGGAGUUCUACAGUCCGACGAUCUCAACACUAGCGAUACCUUUGACAAAUGUUUCCUGGGCUCAUCAGAAACAGCAGAUGCUAAUAGAGUAUUCUGUGGUCAGAUGACUGCAGUUUACCUUUUCAGUGAAGCUCUAAAUGCAGCAACAGAGGAUUGAGCAUCA
B3: chr9:6012816:6012917:-|CDS|ENSG00000137040|unk|total|mutant (ssRNA)
RNA: GGGAGUUCUACAGUCCGACGAUCGGGAUUGUGCAUAUUUGAUGACAUCACCGAGCACUGCAGUCCAACUUCAUUUAAAUAUGCCGAAUAUUUUCGGUGGCCAAUGCUACUAAAUAUGCGAGAUAACAACCCUGAAGUCAGGCACAACAGAGGAUUGAGCAUCA
B4: ENSG00000136451:be:win_1651|3pUTR|ENSG00000136451|bound_else_gene|NA|bound_elsewhere_windowed (ssRNA)
RNA: GGGAGUUCUACAGUCCGACGAUCAUGAAAUUGGGAGAUUUUAUUACAUUAGUUAAUAAGAGUGUGGUAGCAUUUUUCUCCAAUUUGGCUGGGAUUAUUCAAAGUAGGGUGUGUAUGUAACUUAUCACUGGACCACUUUAGUUUCAACAGAGGAUUGAGCAUCA
B5: chr15:75657416:75657517:+|3pUTR|ENSG00000173548|msi1|FALSE|unique (ssRNA)
RNA: GGGAGUUCUACAGUCCGACGAUCCAUGGGUGCCCCUGGGAAAUUCCCCACUCCUUAGAAGUGGGGCACAGCAGGGGUGAGAAUAGAGUCAGGAGCCCUCGAGGCCAAGGCCUGGGCUGCCGGUCAGUCAGUGAAGGUCAGGCCCAACAGAGGAUUGAGCAUCA
B6: chr10:17237356:17237519:+|3pUTR|ENSG00000026025|msi1_unk|FALSE|overlapping (ssRNA)
RNA: GGGAGUUCUACAGUCCGACGAUCAGAUAGAUUUGGAAUAGGAAUAAGCUCUAGUUCUUAACAACCGACACUCCUACAAGAUUUAGAAAAAAGUUUACAACAUAAUCUAGUUUACAGAAAAAUCUUGUGCUAGAAUACUUUUUACAACAGAGGAUUGAGCAUCA
B7: chr2:99394746:99394872:+|CDS|ENSG00000158417|unk|total|mutant (ssRNA)
RNA: GGGAGUUCUACAGUCCGACGAUCGAUGUGAGAAUUGAACGAGAUGCACAAGAAAUGGCUGACCGUUCCGGAGUCCGAAUUUUCCGUGCAGAAAUUAUUUAUCAUUUAUUUGAUGCCUUUACAAAAUACCGACAAGACUACAAGCAACAGAGGAUUGAGCAUCA
B8: chr1:152032676:152032810:-|CDS|ENSG00000163191|unk|total|mutant (ssRNA)
RNA: GGGAGUUCUACAGUCCGACGAUCGGACCCUGGUGUCCUUGACCGCAUGAUGAAGAAACUGGACACCAACAGUGAUGGUCAGCCCGAUUUCUCAGAAUUUCUUAAUCUGAUUGGUGGCCCCGCUAUGGCUUGCCAUGACUCCUUCAACAGAGGAUUGAGCAUCA
B9: chr15:38484694:38484795:+|3pUTR|ENSG00000171262|unk|FALSE|unique (ssRNA)
RNA: GGGAGUUCUACAGUCCGACGAUCAUUAGAAAUAGUGUUCCAAAUAACAUACUUGAAUAUCAUCUUUGAAGUAAACACCAUGUUAGACUCCCUGGUGAUACCACUCUUGAAUUGGUUAAUAUGUAAGAACAUUGUUUUUUAUUACAACAGAGGAUUGAGCAUCA
B10: chr6:111661451:111661552:-|3pUTR|ENSG00000010810|msi1|FALSE|bound_elsewhere (ssRNA)
RNA: GGGAGUUCUACAGUCCGACGAUCCUUUGGAAAAUGCAUUGUAUCGAUGUUAUGUAAAAGGCCAAACCUCUGUUCAGUGUAAAUAGUUACUCCAGUGCCAACAAUCCUAGUGCUUUCCUUUUUUAAAAAUGCAAAUCCUAUGUGCAACAGAGGAUUGAGCAUCA
B11: chr2:205797254:205797461:+|3pUTR|ENSG00000118257|msi1|total|mutant (ssRNA)
RNA: GGGAGUUCUACAGUCCGACGAUCUCACCCUCCCAUGAUGCGCAGUGUUCAGAAAGCUGGUAAGUCCCCGGGAUUUCCAGAAGCCGCCUGCAGAAGAAGGUAAGUUUGAAAGCCACUCCAGGGGUCCUGAUGCUGUCAUGCUCACAACAGAGGAUUGAGCAUCA
B12: chr11:10770493:10770605:+|CDS|ENSG00000198730|unk|FALSE|unique (ssRNA)
RNA: GGGAGUUCUACAGUCCGACGAUCACAUGUGGCACCCAGUGAUACAGUUCUUAUGUUUAAUGUGGCCUUGGUCCUGCAAAGAUUAGCUACCUCUGUCCUGAAAGAUGAAAAAAGUAAUCUGAAGGAAGUACUUAAUGCUGUGAACAACAGAGGAUUGAGCAUCA
B13: chr20:50584425:50584526:+|3pUTR|ENSG00000196396|msi1|FALSE|unique (ssRNA)
RNA: GGGAGUUCUACAGUCCGACGAUCACCUCCUAUCCUUGGAGAGCAGCUGGCUCUCCACCUUGUUACACAUUAUGUUAGAGAGGUAGCGAGCUGCUCUGCUAUAUGCCUUAAGCCAAUAUUUACUCAUCAGGUCAUUAUUUUUUACAACAGAGGAUUGAGCAUCA
B14: chr7:20413385:20413486:+|3pUTR|ENSG00000105855|msi1|total|mutant (ssRNA)
RNA: GGGAGUUCUACAGUCCGACGAUCACUGAAGAUAUCUUUAUGCAAGACAAGAGUCAGCCAUCAGACACUGAAAUAUAUUAUGACCGAUUAUGAAGAAUUUUCUCUGCCGAAUUAUAUUCUUCCUGGAACCUGGCCGAGCCGAUUCAACAGAGGAUUGAGCAUCA
B15: chr13:32775312:32775413:+|3pUTR|ENSG00000083642|unk|FALSE|unique (ssRNA)
RNA: GGGAGUUCUACAGUCCGACGAUCGAAACUUGUAAAUAUCUUUUUUCUUUUUUUUAAUGUUUCUGAUUUCUGAAGUGCUUGUAUAGCUUUUAUCUGCGGCUUUAAACUGACAGUACCCGACUGUUUAUUGGAUCUAUUGAUUUGCAACAGAGGAUUGAGCAUCA
B16: chr19:54333184:54333571:-|three_prime_utr|ENSG00000239961|control|control|control (ssRNA)
RNA: GGGAGUUCUACAGUCCGACGAUCGCUGAGAAUAUCAAGGGGAAGAAGCAUGGGUCAGGUGCAGGAAGAUGUCUGGGUGUCUGUAGAAGAUGCUUCCUCCAUUAAACUGUGGUGCUUUCCUCCUCAUUGUCGACUCUCCUUGACCAACAGAGGAUUGAGCAUCA
B17: ENSG00000198589:be:win_7751|CDS|ENSG00000198589|bound_else_gene|NA|bound_elsewhere_windowed (ssRNA)
RNA: GGGAGUUCUACAGUCCGACGAUCAAGUGCAUUCCCAGUGCUUUGUCAUCACUUCAGACAACCGCUAUAUUCUCGUCUGUGGCUUCUGGGAUAAAAGUUUCAGAGUCUAUUCUACAGACACAGGAAGAUUGAUCCAAGUGGUGUCAACAGAGGAUUGAGCAUCA
B18: chr1:27612063:27612913:-|three_prime_utr|ENSG00000000938|control|control|control (ssRNA)
RNA: GGGAGUUCUACAGUCCGACGAUCGGUGGCCACCAGUCCUUGCCAAUCCCCAGAGCUGUUCUUCCAAAGCCCCCAGGCUGGCUUAGAACCCCAUAGAGUCCUAGCAUCACCGAGGACGUGGCUGCUCUGACACCACCUAGGGCACAACAGAGGAUUGAGCAUCA
B19: chr17:48061271:48061372:+|3pUTR|ENSG00000082641|msi1|total|mutant (ssRNA)
RNA: GGGAGUUCUACAGUCCGACGAUCAGUGAAAUGGGGGUGGGGGGAAGCACUGAUUCCCAGUCCGGGGGUGCCUAACUGAGCAGCCGGGACCGAAGGUGUGAACCUGGGAGUGCUUUUAUAAAUUAUUUUCCUUGCCGAUUUUAUCAACAGAGGAUUGAGCAUCA
B20: ENSG00000061794:stop:overlap|stop_codon|ENSG00000061794|stop_codon|NA|stop_codon (ssRNA)
RNA: GGGAGUUCUACAGUCCGACGAUCUCUCCACUGCCGUCUACUCGGCCACUCCGGUCCCGACACCUAGCCUGCGCACUACCUCCUAGGACAGAGAAAAUGGCUGUUGACCAGGACUGGCCUAGUGUUUACCCAGUUGCAGCACCACAACAGAGGAUUGAGCAUCA
B21: chr4:75800632:75800752:+|CDS|ENSG00000138768|unk|FALSE|unique (ssRNA)
RNA: GGGAGUUCUACAGUCCGACGAUCAAACAACUGAUUGAGAAGAGGAUUGGCAAAGAGAAUUUCAUAGAGAAACUAGGAUUUAUUAGCAAACAUGAGUUGUAUUCCAGAGCAUCUCAGAAACCCCAGCCAAACUUUCCCAGUCCACAACAGAGGAUUGAGCAUCA
B22: chr15:25371268:25371377:-|CDS|ENSG00000114062|unk|total|mutant (ssRNA)
RNA: GGGAGUUCUACAGUCCGACGAUCCACAAUGUAUACUCUCGAGAUCCUAAUUAUCUGAAUUUGUUCAUUAUCGUAAUGGAGAACCGAAAUCUCCACAGUCCUGAAUAUCUGGAAAUGGCUUUGCCAUUAUUUUGCAAAGCGAUGCAACAGAGGAUUGAGCAUCA

Each binder was assayed against MSI1 full-length (mouse, UniProt Q61474 1-362) (assay: nsRBNS (natural sequence RNA bind-n-seq); RBNS binding buffer (assumed for nsRBNS): 25 mM Tris pH 7.5, 150 mM KCl, 3 mM MgCl2, 0.01% Triton X-100, 500 ug/ml BSA, 20 U/ml SUPERase-In, 4 C; UNK is unkempt and MSI1 is Musashi-1; names of the RNAs are library labels; protein concentration not given here; high values mean tight binding).
Sequence of UniProt Q61474 (Q61474 whole entry): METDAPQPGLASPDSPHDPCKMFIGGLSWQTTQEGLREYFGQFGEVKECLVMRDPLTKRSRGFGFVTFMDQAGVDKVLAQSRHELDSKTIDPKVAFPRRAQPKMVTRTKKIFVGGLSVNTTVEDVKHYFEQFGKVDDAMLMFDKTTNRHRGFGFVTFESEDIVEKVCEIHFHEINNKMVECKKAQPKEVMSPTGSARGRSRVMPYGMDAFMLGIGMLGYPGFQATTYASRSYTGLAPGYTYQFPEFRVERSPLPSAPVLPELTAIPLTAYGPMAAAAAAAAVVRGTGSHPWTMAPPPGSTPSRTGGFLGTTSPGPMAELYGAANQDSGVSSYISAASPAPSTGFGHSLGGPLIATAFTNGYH

Binder	binding signal [enrichment R]
B1	1.43
B2	0.431
B3	0.287
B4	2.18
B5	0.407
B6	20.9
B7	0.374
B8	0.259
B9	0.922
B10	2.5
B11	0.483
B12	0.659
B13	6.1
B14	0.223
B15	0.648
B16	0.576
B17	0.205
B18	0.638
B19	0.717
B20	0.532
B21	3.47
B22	0.673
